Test results taken from PubChem BioAssay AID1347073 (National Center for Advancing Translational Sciences (NCATS), 2019).
Out of some 45,000 compounds screened, about 200 (0.44%) were called active. Another 7% or so got no clear call; they are omitted. Calls follow the shape of the dose curve; as a rule, active = well fitted activation curve with a large enough effect; inconclusive = small, poorly fitted or top-dose-only effect; inactive = no such curve, though single readings can be large or run the other way. The list shows a part of the results.

Assay: qHTS of TDP-43 Inhibitors: NCGC Sytravon Library Screen; also: 0% is about no effect; nearly all actives have a fitted effect of over 55% in size
Details: yeast TDP-43 toxicity rescue, BacTiter-Glo growth, 24 h; series mostly up to 46.1 µM; growth rescue (activation): at the top concentration
Procedure, shortened: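 TDP-43-expressing yeast, pregrown in raffinose, seeded at OD600 0.02 in galactose medium with compound for 24 hr at 30 deg C. Growth read by BacTiter-Glo luminescence, so rescue of toxicity appears as activation.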

| SMILES | growth rescue (activation) |
| --- | --- |
| O=C(c1ccc(OC2CCN(CCc3ccccc3)CC2)cc1)N1CCCC1 | inactive: -1.83% |
| CN1CCN(CCC(=O)N/N=C/c2cc([N+](=O)[O-])ccc2OC(F)F)CC1 | inactive: -6.74% |
| CC(=O)N1CCN(C(=O)C(Cc2c[nH]c3ccccc23)NC(=O)c2ccccc2Cl)CC1 (stereo unspecified) | inactive: -8.8% |
| CC1=NN(C(=O)COc2ccc(C)c(C)c2)C(O)(c2ccc(Cl)cc2)C1 (stereo unspecified) | inactive: -18.1% |
| CCOC(=O)C1=C(C)NC(C)=C(C(=O)OCC)C1C(=O)OCC(=O)NCCc1ccccc1 | inactive: 4.25% |
| CCOCCCNC(=S)N1CCN(Cc2ccc3c(c2)OCO3)CC1 | inactive: 7.59% |
| Cn1cccc1/C=N/N1CCN(Cc2ccccc2Cl)CC1 | inactive: -4.36% |
| COCCCN(C(=S)Nc1cc(C)cc(C)c1)C(C)c1ccncc1 (stereo unspecified) | inactive: -3.85% |
| COc1cc(CC(=O)OCC(=O)NC2CCCCCC2)cc(OC)c1OC | inactive: 23.4% |
| COc1ccc(C(=O)OCC(=O)N2C(C)CCCC2C)cc1S(=O)(=O)N1CCOCC1 (stereo unspecified) | inactive: -10% |
| CCCOc1ccc(C(=O)O/N=C(\CC)c2ccc(C)cc2)cc1 | inactive: 16.7% |
| CCOC(=O)/C(C#N)=C/N1CCOCC1 | inactive: 19.8% |
| CCOc1ccc(S(=O)(=O)N2CCCCC2)cc1NC(=O)c1ccccc1 | inactive: -2.08% |
| COC(=O)N/N=C(\CCC(=O)O)c1cccs1 | inactive: 7.82% |
| COC(=O)c1ccc(N2CCOCC2)c(NC(=O)c2cc3ccccc3o2)c1 | inactive: -0.481% |
| COC(=O)c1sc2nc3c(c(-c4cccs4)c2c1N)CCCC3 | inactive: -0.643% |
| Cc1cc(C(=O)Nc2ccc(C(=O)O)cc2)c(C)o1 | inactive: -15.6% |
| CC1CN(C(=O)COC(=O)c2cc(Cl)ccc2[N+](=O)[O-])CC(C)O1 (stereo unspecified) | inactive: -18.6% |
| COc1ccccc1OCC(=O)N(Cc1nc(-c2ccccc2)no1)C(C)C | inactive: -34.3% |
| O=c1cc(CN2CCN(S(=O)(=O)c3ccccc3[N+](=O)[O-])CC2)nc2sccn12 | inactive: 9.22% |
| COc1ccc(CNC(=O)CN(C(=O)c2csnn2)c2ccc(F)cc2)cc1 | inactive: 1.23% |
| C[C@H](NC(=O)Cc1cccc2ccccc12)C(=O)N1CCOCC1 | inactive: 1.56% |

| SMILES | growth rescue (activation) |
| --- | --- |
| C=C(C)Cn1c2ccc(NC(=O)CCc3cccnc3)cc2c(=O)n1C | inactive: 1.56% |
| Cc1ccc(S(=O)(=O)N(C)C)cc1NC(=O)COC(=O)CCC(=O)c1ccc(F)cc1 | inactive: 1.65% |
| CCc1cc2c(SCC(=O)N(C)C3CCS(=O)(=O)C3)ncnc2s1 (stereo unspecified) | inactive: -14.4% |
| COC(=O)C1CN(C(=O)COc2ccc(C)c(C)c2)c2ccccc2O1 (stereo unspecified) | inactive: 16.5% |
| Cc1ccc(NC(=O)Cn2nc(C(=O)O)c3ccccc3c2=O)c([N+](=O)[O-])c1 | inactive: 7.89% |
| Cc1ccc(-n2cnc3ncnc(-c4ccccc4)c32)cc1 | inactive: 2.22% |
| OC[C@H]1O[C@@H](c2nc(-c3ccc(CN4CCOCC4)cc3)no2)[C@H](O)[C@@H](O)[C@H]1O | inactive: -1.35% |
| Cc1c(Cl)c([N+](=O)[O-])nn1CC(=O)NCCCN1CCOCC1 | inactive: -6.97% |
| Cc1ccc(C(=O)N/C(=C/c2ccc(Cl)cc2)C(=O)NCC2CCCO2)cc1 (stereo unspecified) | inactive: 13.6% |
| CCCC(=O)N(Cc1cc(=O)[nH]c2ccccc12)c1ccc(OC)cc1 | inactive: 5% |
| CCCN1Cc2cccc(C(=O)NC(CC(=O)OCC)c3ccc(C)cc3)c2C1=O (stereo unspecified) | inactive: -2.4% |
| Cc1cc(C)n(-c2cc(C(=O)O)cc(C(=O)O)c2)n1 | inactive: -9.6% |
| CN(C(=O)CN1C(=O)C2C3CC(C(Br)C3Br)C2C1=O)C1CCCCC1 (stereo unspecified) | inactive: 13.3% |
| COc1ccc(NC(=O)c2ccc(COCC(F)(F)C(F)F)cc2)cc1OC | inactive: 28.8% |
| CCCc1cc(N2CCC(C(N)=O)CC2)nc(-c2ccccc2)n1 | inactive: 4.98% |
| O=C(NC(=S)Nc1sc2c(c1C(=O)O)CCCC2)c1ccccc1 | inactive: -12.6% |
| CN(C)Cc1c(O)ccc2occ(C(=O)c3ccc(F)cc3)c12 | inactive: -5.74% |
| Cc1oc(-c2cc3c(cc2Cl)OCO3)nc1CN1CCCC(C(=O)N2CCOCC2)C1 (stereo unspecified) | inactive: -8.03% |
| O=C(CNC(=O)c1ccccc1)Nc1ccsc1C(=O)O | inactive: -2.44% |
| CC1CCN(C(=O)CCNS(=O)(=O)c2ccc(Cl)cc2)CC1 | inactive: -6.33% |
| COc1ccc(CCN2C(=O)/C(=C\c3ccco3)SC2=S)cc1OC | inactive: 13% |
| CC1(C)CC(=O)C2=C(C1)Nc1ccccc1NC2c1ccc(F)cc1 (stereo unspecified) | inactive: -3.05% |

| SMILES | growth rescue (activation) |
| --- | --- |
| CN(c1ccccc1)S(=O)(=O)c1cccc(NC(=O)CSc2ncc(C(F)(F)F)cc2Cl)c1 | inactive: -6.66% |
| COc1ccc(C2Nc3ccccc3C(=O)N2NS(C)(=O)=O)cc1OC (stereo unspecified) | inactive: -2.55% |
| CCc1nc2c(OCc3ccc(F)cc3)cccn2c1N(C)C(=O)c1ccco1 | inactive: 4.59% |
| CCOC(=O)c1ccc(NC(=O)Cn2ncc(Cl)c(Cl)c2=O)cc1 | inactive: -15.3% |
| CN(CC(=O)NCCc1ccc(S(N)(=O)=O)cc1)CC(=O)Nc1ccccc1C(F)(F)F | inactive: 5.4% |
| O=C1/C(=C\c2cc(Cl)c(O)c(Cl)c2)SC(=S)N1Cc1ccccc1 | inactive: -6.17% |
| NC(=O)c1cccc(-c2coc3c(C(=O)NC4CCCCC4)cccc23)c1 | inactive: 27.9% |
| Cc1nc(NCCc2ccc(F)cc2)c(C#N)c(C)c1[N+](=O)[O-] | inactive: 17.5% |
| CCCCNC(=S)N/N=C/c1cccc(OCC)c1O | inactive: 11.8% |
| COc1cc(/C=C/C(=O)OCC(=O)NCc2ccco2)cc(OC)c1OC | inactive: -2.01% |
| COc1ccc(NC(=O)C2CCC(CNc3c(N4CCCCC4)c(=O)c3=O)CC2)cc1OC (stereo unspecified) | inactive: 3.78% |
| Cc1ccccc1OCc1nnc(SCC(=O)NC2CCCCC2)o1 | inactive: 11.5% |
| Cc1ccc2cc(CCl)c(Cl)nc2c1 | inactive: -12.5% |
| CCOC(=O)C1CCCN(C(=O)/C(=C/c2ccco2)NC(=O)c2ccccc2)C1 (stereo unspecified) | inactive: 6.97% |
| N#Cc1ccc(S(=O)(=O)N2CCC(N3CCCCC3)CC2)cc1 | inactive: 1.57% |
| Cc1cc(C)c(C#N)c(SCC(=O)Nc2c(C)n(C)n(-c3ccccc3)c2=O)n1 | inactive: -4.13% |
| COc1cc(CO)ccc1OCC(=O)Nc1ccc(Br)cc1 | inactive: -0.29% |
| COCCCNC(=O)C(=O)C1C(=O)Nc2ccccc21 (stereo unspecified) | inactive: 11.9% |
| CC(=O)Oc1ccc(/C=C2\C=C(c3ccc(C)cc3)OC2=O)cc1 | inactive: -13.2% |
| CC1(C)CC(=NOC(=O)c2ccccc2)CC(C)(C)N1O | inactive: 10.4% |
| Cc1[nH]c2ccc(-c3n[nH]c(=S)n3-c3ccc(Br)cc3)cc2c1C | inactive: 1.05% |
| Cc1c(C2CC(=O)N(c3ccccc3)C2=O)[nH]n(-c2ccccc2)c1=O (stereo unspecified) | inactive: -4.04% |

| SMILES | growth rescue (activation) |
| --- | --- |
| Cc1cc(NS(=O)(=O)c2ccc(NC(=O)CNS(=O)(=O)c3ccccc3)cc2)nc(C)n1 | inactive: -15.2% |
| Cc1ccc(/C=N/NC(=O)c2cc(C)oc2C)o1 | inactive: 5.34% |
| O=C(NC(=S)Nc1cccc2cnccc12)c1ccccc1 | inactive: -0.378% |
| COC(=O)c1ccc(C2C(C(=O)c3cc4ccccc4o3)=C(O)C(=O)N2c2cc(C)on2)cc1 (stereo unspecified) | inactive: -7.66% |
| CC(=O)NS(=O)(=O)c1ccc(NC(=O)c2ccc3c(c2)NC(=O)CS3)cc1 | inactive: 0.217% |
| Cc1c(C(=O)N2CCOCC2)c(S(=O)(=O)Nc2cccc(Br)c2)c(C)n1C | inactive: -9.89% |
| CC(NC(=O)c1ccc(C(F)(F)F)cc1)C(c1ccccc1)N1CCOCC1 (stereo unspecified) | inactive: 14% |
| CCOC(=O)c1c(NC(C)=O)c2c3c(sc2n1Cc1nc(-c2ccccc2Cl)oc1C)CCCC3 | inactive: 2.62% |
| Cc1ccc(/C=N/NC(=O)c2cc(C)oc2C)cc1 | inactive: -9.06% |
| Cc1cn(C(=O)CN2C(=O)c3ccccc3C2=O)c(C)n1 | inactive: -5.32% |
| CN(C)CCCNc1cc(C(C)(C)C)nc2c(-c3ccccc3)cnn12 | inactive: 5.23% |
| COc1ccc(C(=O)/C=C/c2cn(CC(O)CN3CCOCC3)c3ccccc23)cc1 (stereo unspecified) | inactive: 12.4% |
| CCCCCCCNC(=O)c1cc(-c2ccncc2)nc2ccccc12 | inactive: 17.5% |
| Cn1c(C(=O)N[C@@H](Cc2ccccc2)C(=O)NCCC(=O)O)cc2cc(Cl)ccc21 | inactive: -20.3% |
| CN(C)S(=O)(=O)c1ccc(Cl)c(NC(=O)CN2CCCC2)c1 | inactive: 2.17% |
| Cc1ccc(C)c(OCc2nc3ccccc3[nH]2)c1 | inactive: 13.8% |
| CC(C)N1C(=O)S/C(=C/c2ccccc2OCc2ccc(C(=O)O)cc2)C1=O | inactive: -11% |
| COc1ccc(NC(=S)N(Cc2ccc(C(=O)O)cc2)Cc2ccc(OC)c(OC)c2)cc1 | inactive: 5.19% |
| CCN1/C(=C/C=C/c2oc3ccc4ccccc4c3[n+]2CC)Oc2ccc3ccccc3c21 | inactive: -71.3% |
| O=C(CCCc1c[nH]c2ccccc12)Nc1ccc2ccccc2c1 | inactive: -14.2% |
| Cc1ccc(CNC(=O)COC(=O)C2CCN(S(=O)(=O)c3cccs3)CC2)cc1 | inactive: 4.63% |
| C#CCOc1ccccc1/C=C1/C(=O)ON=C1C | inactive: -8.29% |

| SMILES | growth rescue (activation) |
| --- | --- |
| CCCn1ncc(CN2CCC(CO)(CC3CCCCO3)CC2)c1C (stereo unspecified) | inactive: -6.21% |
| CCN(CC)Cc1c(NC(=O)c2ccccc2)sc(C)c1C | inactive: 13.8% |
| O=C(COC(=O)CCc1c[nH]c2ccccc12)Nc1ccccc1 | inactive: -3.27% |
| COc1nc(Oc2ccc(=O)n(C)n2)nc(N(C)C)n1 | inactive: -0.294% |
| CC(C)C(C(=O)NCc1ccccc1)N(CC1CCCO1)C(=O)CNS(=O)(=O)c1ccccc1 (stereo unspecified) | inactive: 3.49% |
| CC(Sc1nnc(C2CC2)n1C1CC1)C(=O)Nc1ccccc1C#N (stereo unspecified) | inactive: 33.1% |
| CC(=O)NC(=S)Nc1ccc(NC(=O)c2cccs2)cc1 | inactive: -20.7% |
| OC(CNCc1ccccc1F)COc1cccc2ccccc12 (stereo unspecified) | inactive: 21.4% |
| Cc1ccc2c(c1)C(c1ccccc1)N(C(=O)CC(C)C)CC(=O)N2 (stereo unspecified) | inactive: -16.5% |
| O=C(C1CCCO1)N1CCN(C(=S)Nc2ccc(F)cc2)CC1 (stereo unspecified) | inactive: 8.91% |
| CC(=O)NC(Cc1ccc(F)cc1)C(=O)NC1CCN(C(=O)Nc2ccccc2C)CC1 (stereo unspecified) | inactive: -2.44% |
| O=C(COc1ccc(S(=O)(=O)N2CCOCC2)cc1Cl)NCCCn1ccnc1 | inactive: -11.4% |
| O=C(NNC(=O)C1CC2CCC1C2)c1ccccc1 (stereo unspecified) | inactive: 6.13% |
| CN(CC(=O)Nc1cccc(S(=O)(=O)N(C)C)c1)Cc1ccccc1 | inactive: 0.205% |
| CCOc1ccc(NC(=O)CCC(=O)NNC(=O)c2cccc([N+](=O)[O-])c2)cc1 | inactive: 9.21% |
| S=c1[nH]nc(-c2ccco2)n1/N=C/c1cccs1 | inactive: 18.9% |
| Cc1cc(C(=O)CSc2nncn2C)c(C)n1-c1ccccc1 | inactive: -14.8% |
| CC(=O)Nc1ccc(NC(=O)COC(=O)Cc2c[nH]c3ccccc23)cc1 | inactive: 8.12% |
